Results as given in PubChem BioAssay AID686978 (National Center for Advancing Translational Sciences (NCATS), 2013).
The campaign covered roughly 420,000 compounds. About 64,000 (15%) were called active. This list was built around the results that the source calls inconclusive (neither active nor inactive); the mix of calls is not that of the screen. The call rests on the fitted dose curve; in most records, active means well fitted inhibition curve with a large enough effect; inconclusive means small, poorly fitted or top-dose-only effect; inactive means flat fitted curve, though single readings scatter. No potency is given beside an inconclusive call; the fits are too rough.

Test: qHTS for Inhibitors of human tyrosyl-DNA phosphodiesterase 1 (TDP1): qHTS in cells in absence of CPT; further: nearly all actives have a fitted effect of over 55% in size
Settings: DT40 Tdp1-/- hTDP1 cells, no CPT, ATP luminescence, 48 h; activity change, negative = growth inhibition: at 46.2 µM (top of the series) unless noted
Summary of the method: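 Readout: luminescence from CellTiter-Glo after 30 min in the dark at RT. Cells: DT40 Tdp1-/- with stable hTDP1, 400/well. Exposure: compounds alone, ≥48 hr, 37 °C.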
On the % scale 0 is the no-effect control and ±100 the full control effect; potency means the concentration at half of the fitted maximal effect; tags describe the fitted curve by direction and shape.

SMILES | Potency | activity change, negative = growth inhibition
CN(C)CCOc1nc(-c2ccccc2)nc2c1oc1ccccc12 | active: 23.1 µM | –
CCOc1ccccc1NC(=S)NCCc1ccc(F)cc1 | inconclusive [inhibitor, single point] | –
COc1ccccc1C1=NOC(C)(c2nnc(-c3cccc(Cl)c3)o2)C1 (stereo unspecified) | inconclusive [inhibitor, single point] | –
S=C(NCc1ccco1)N/N=C/c1ccncc1 | inactive | –
CCCc1nn(-c2cc(Cl)ccc2OC)c2c1C(=O)CCC2 | inconclusive [inhibitor, single point] | –
O=C(NCCCn1ccnc1)c1noc2c1CCCC2 | inconclusive [inhibitor, single point] | –
CCCNc1nc2ccccc2n2c(C)nnc12 | inconclusive [inhibitor, single point] | –
CSc1ncccc1C(=O)NCCc1ccccc1F | inactive | –
CSC(=NC#N)N1CCN(c2ccc(Cl)cc2)CC1 | inconclusive [inhibitor, single point] | –
Cc1cccc(N2CCN(C(=O)CN3CCOc4ccccc43)CC2C)c1 (stereo unspecified) | inconclusive [inhibitor, single point] | –
COc1ccc(S(=O)(=O)c2cnc3cc(OC)c(OC)cc3c2N2CCCC(C)C2)cc1 (stereo unspecified) | inconclusive [inhibitor, single point] | –
Cc1cccc(-n2c(CCc3ccccc3)nnc2SCC(=O)c2ccccc2)c1 | active: 9.2 µM | –
CCc1ccc(CNC(=O)C2CCCN(c3nn4c(=O)cc(C)nc4s3)C2)cc1 (stereo unspecified) | inactive | –
COc1ccccc1C(=O)N(Cc1nc(-c2cccc(C)c2)no1)C(C)C | inconclusive [inhibitor, single point] | –
CC(=O)Nc1sc2c(c1C(c1ccccc1Cl)N1CCN(CCO)CC1)CCCC2 (stereo unspecified) | – | inconclusive: -30.4% [inhibitor]
C1=Cc2ccccc2/C1=C\c1cccc(/C=C2\C=Cc3ccccc32)c1 | inconclusive [inhibitor, single point] | –
COc1ccc(/C=N/N2CCOCC2)cc1COc1ccc(F)cc1 | inconclusive [inhibitor, single point] | –
Cc1noc(C)c1S(=O)(=O)N(C)Cc1ccccc1 | – | inconclusive: -27.4% [inhibitor]
Cc1ccc(C(=O)NC(=S)NCc2ccco2)cc1 | inconclusive [inhibitor, single point] | –
CCOCCn1cnc2sc(C(=O)NCCCN3CCOCC3)c(C)c2c1=O | inactive | –
COc1cc(CNC23CC4CC(CC(C4)C2)C3)ccc1OCc1ccccc1 | active: 20.6 µM | –
O=C(NC1CCCc2ccccc21)C1CCN(S(=O)(=O)c2ccccc2)CC1 (stereo unspecified) | inconclusive [inhibitor, single point] | –
CCOc1ccc(C2C(C(=O)Nc3ccccc3)=C(C)Nc3nc(SCc4cccc(OC)c4)nn32)cc1 (stereo unspecified) | inactive | –

SMILES | Potency | activity change, negative = growth inhibition
Cc1ccc(C(=O)NCCN2C3=NC[C@H](Cc4ccc(O)cc4)N3C[C@H]2Cc2ccc(O)cc2)cc1Br | active: 16.4 µM | –
CCCn1c(N2CCN(C(=O)NCc3ccccc3)CC2)nc2ccccc21 | inconclusive [inhibitor, single point] | –
CC1CCCCC1NC(=O)c1cccc(NC2=NC3CS(=O)(=O)CC3S2)c1 (stereo unspecified) | inactive | –
CCn1nc(C)cc1-c1nnc(SCC(=O)Nc2ccccc2)n1CCCOC | inactive | –
O[C@@H]1CN(CC2CCCCC2)[C@@H](c2ccccc2)C[C@H]1n1cc(C2CC2)nn1 | active: 8.2 µM | –
CCOc1ccc(-c2cn3c(n2)sc2cc(C(=O)NCCc4ccc(OC)cc4OC)ccc23)cc1 | inconclusive [inhibitor, partial curve] | –
O=S(=O)(NCCc1csc2nc(-c3ccccc3)nn12)c1cccs1 | active: 16.4 µM | –
CC(C)C[C@@H](CN1CCCC1CN1C(=S)NC[C@@H]1Cc1ccccc1)N1C[C@H](Cc2ccccc2)N(CC2CCCCCC2)C1=S (stereo partly specified) | inconclusive [inhibitor, single point] | –
CCOC(=O)Cn1c(=O)c2c(nc3n2CCCN3Cc2ccccc2)n(C)c1=O | inactive | –
CCCC(=O)n1nc(-c2ccccc2)nc1N | inactive | –
O=C(O)CCC/C=C\C[C@@H]1C(/C=C/[C@@H](O)COc2cccc(C(F)(F)F)c2)[C@@H](O)C[C@@H]1O (stereo partly specified) | – | inactive: -5.01% [at 4.12 µM]
O=C(Nc1ccc2nn(-c3ccc(F)cc3)nc2c1)c1cccnc1 | inconclusive [inhibitor, partial curve, poor fit] | –
CC(C)CCOc1ccc(C2N=C(N)Nc3nc4ccccc4n32)cc1 (stereo unspecified) | inconclusive [inhibitor, single point] | –
CCc1nc(-c2cc(S(=O)(=O)N3CCN(c4ccc(OC)cc4)CC3)ccc2OC)no1 | inactive | –
COc1cccc(C(=O)Nc2nc(-c3ccncc3)cs2)c1 | – | inconclusive: -30.9% [inhibitor]
Cc1nn(C(C)C(=O)NC2CCC(C)CC2)c(=O)c2c1sc1ccccc12 (stereo unspecified) | inconclusive [inhibitor, single point] | –
Cc1cc(C)c2c(c1)c(C)cc1nnc(SCC(=O)c3cccs3)n12 | inconclusive [inhibitor, single point] | –
Cc1cc(N2CCOCC2)nc2ccc(NC(=O)C3CCC(C)CC3)cc12 (stereo unspecified) | inconclusive [inhibitor, single point] | –
Cc1cccc(NC(=O)CN(CC2CCCO2)C(=O)c2cc3ccccc3o2)c1C (stereo unspecified) | inconclusive [inhibitor, single point] | –
N#CC1=C(N)Oc2cc(O)c(C=Nc3ccccc3)cc2C1c1ccccc1 (stereo unspecified) | inconclusive [inhibitor, single point] | –
Cc1cc(NC(=O)Nc2cc(Cl)ccc2C)no1 | inactive | –
CCOc1ccc([C@@H]2CC=C(C(=O)O)[C@H](c3ccc(F)cc3)N2S(=O)(=O)c2ccc(C)cc2)cc1 | inactive | –
O=C(NC(=S)Nc1ccc(-c2nc3ncccc3o2)cc1)c1ccccc1F | inactive | –
